Experimental data from ChEMBL document CHEMBL4888484, “Replenishing the malaria drug discovery pipeline: Screening and hit evaluation of the MMV Hit Generation Library 1 (HGL1) against asexual blood stage Plasmodium falciparum ,using a nano luciferase reporter read-out” (2022).
Among all 150,000 compounds or so, about 540 (0.36%) showed an effect of 50% or more. The list shows a part of the results.

system: Plasmodium falciparum; assay: Primary screen in NF54 nanoGlo assay, in single point, at 2uM, 72h; a lower Z score goes with more inhibition; type: functional, Erythrocyte; conditions: timepoint 72 hour

SMILES	% Inhibition	Z score
Cn1nc(C(=O)N2CCC(N3CCC(Oc4ccccc4F)CC3)CC2)ccc1=O	-16%	2.02
CCCc1cnc(NC(=O)C2OC(C)CC2C)s1 (configuration not stated)	0%	0.02
CCc1nc(C)c(C(=O)N2C[C@@H]3NC(=O)CN(C4CC4)C(=O)CCc4ccc(c(OC)c4)Oc4cccc(c4)CO[C@H]3C2)o1	6%	-0.76
Clc1cnc(NCc2ccncc2)c(Br)c1	-18%	3.31
OCCc1csc(-c2cccc3c2CCO3)n1	4%	-0.41
O=S(=O)(NCC#CCOc1ccc2c(c1)OCO2)c1cccnc1	-10%	1.31
O=S(=O)(Cc1ccccc1F)N1CC(c2nc(CCOCc3ccccc3)no2)C1	-7%	0.84
Cc1ccc(C(=O)N2CC3(C[C@@H](c4nnc(-c5ccccc5)o4)N(C)C3)C2)cn1	-13%	1.57
O=C(N[C@H]1C[C@H](c2nnc(CO)n2C2CC2)C1)c1ccc(F)cc1Cl	-5%	0.91
COc1ccccc1-c1nnc([C@H]2CCN(Cc3ccc(C(=O)O)cc3)C2)o1	-3%	0.38
CCN(C[C@H](C)C(=O)OC)S(=O)(=O)c1ccc(C#N)cc1	-7%	0.96
Cc1ccc(C)n1NC(=O)c1cccs1	0%	-0.05
O=C(NCCc1nc(C2CC2)cc(C(F)(F)F)n1)c1ccsc1	-1%	0.14
C[C@H](NC(=O)c1ccsc1)c1ccccn1	13%	-1.76
CC(C)[C@H](CN(C)Cc1ccccc1)NCCC(=O)N1CCOCC1	-5%	0.7
COCCNc1nc2nonc2nc1N1CCC[C@H]1c1ccccc1OC	-13%	1.63
CC(C)c1cc(CNS(=O)(=O)N2CCCC2)no1	3%	-0.4
C[C@@H](CNC(=O)c1cccnc1O)N1CCOCC1	-4%	0.58
CCCC[C@@H](COC)NC(=O)C(=O)Nc1cc(C)ccc1F	-18%	1.62
Cc1noc(C[C@H]2CCCN(S(=O)(=O)CC34CCC(CC3)C4)C2)n1	-17%	2.37
O=C(c1ccc(N2CCCC2=O)cc1)N1CCC[C@H](n2cccn2)C1	-11%	1.52
CN(C(=O)c1c2c(nn1C)CCC2)c1cccc(S(C)(=O)=O)c1	-7%	1.44

SMILES	% Inhibition	Z score
CCn1nc(-c2ccc(C(N)=O)cc2)nc1N(C)C	-22%	1.92
CCOC(=O)N1CCC(S(=O)(=O)Oc2ccc(F)c(F)c2)CC1	-2%	0.23
CCOC(=O)c1nc(-c2cccc(N)c2)n(C)c1C	-5%	0.78
Cc1cc(CNC(=O)Cn2ncn(C)c2=O)ccn1	-17%	1.97
Cc1cnc(N2CCc3[nH]nc(C(C)C)c3C2)nc1N(C)C	-1%	0.07
O=C(NC1CCN(Cc2ccccc2)CC1)c1ccoc1	-4%	0.58
CC(C(=O)NC1(C#N)CCCCC1)N1CCOC(c2nccs2)C1 (configuration not stated)	-5%	0.48
CCCCOc1ccc(-c2cc3c4nn(CC(=O)N(CC)c5ccccc5)c(=O)n4ccn3n2)cc1	-14%	1.96
CC(NC1CCN(C(C)C)C1=O)c1ccc(F)cc1N(C)C (configuration not stated)	-10%	1.34
Cc1cncc(NC(=O)N(C)C[C@H]2CCCCO2)c1	-4%	0.74
CN(C[C@H](O)C(F)(F)F)C(=O)Nc1cc(F)ccc1OC(F)F	-7%	1.1
COc1ccc(C(=O)Nc2cccc(C(=O)c3cccc(C)c3C)c2)cc1	-5%	0.58
O=C(c1cc(-c2cn[nH]c2)nc2ccccc12)N1CCN(c2ncccn2)CC1	-5%	0.65
c1ccc(CNc2ncnc3c2CCC3)nc1	-19%	2.37
O=C(NCc1ccccn1)[C@H]1CCCN(c2cc3c(nn2)CCC3)C1	-11%	2.11
CC[C@H](C)[C@@H]1NC(=O)N(CCCc2cc3c(OC)cc(OC)cc3[nH]2)C1=O	-7%	0.85
O=C(Nc1ccc(C(F)(F)F)cc1)N1CCN(CC(O)C2CCCO2)CC1 (configuration not stated)	33%	-0.67
Nc1ncc(C(=O)N2CCN(CC3CCC3)CC2)s1	1%	-0.19
CCC(CC)[C@H](NC(C)=O)c1cccs1	3%	-0.41
CCCN(CCc1cccc(F)c1)C(=O)Cn1ccc(=O)n(C)c1=O	-11%	1.03
O=C1CN(C(=O)c2ccc(Cl)cc2O)C2CCCCC2N1 (configuration not stated)	-8%	1.49
O=S(=O)(c1ccc(Br)c(-c2nc3ccccc3o2)c1)N1CCCCC1	29%	-3.32

SMILES	% Inhibition	Z score
CCn1ccc2cc(CN3CCN(CC4CC4)[C@@H](CCO)C3)ccc21	-15%	2.94
Cc1nc(C(C)(C)NCC(=O)N[C@](C)(C#N)C2CC2)sc1C	-3%	0.27
CN1CCN(S(=O)(=O)c2ccc3c(c2)CCCC3=O)c2ccccc2C1	-7%	0.92
C[C@H](NCC1(c2ccc3c(c2)OCO3)CCCCC1)C(N)=O	-12%	1.85
Cc1nnnn1CCC(=O)NCc1cc(COc2ccccc2)cs1	-12%	2.04
COC(=O)c1cnc(NC2CCCCCN(C(=O)C3CCC3(F)F)C2)nc1 (configuration not stated)	7%	-0.92
CC1CCCCC1(NC(=O)OC(C)(C)C)C(=O)NC1CCCC1 (configuration not stated)	-7%	0.91
CCc1ccc(CN2C(=O)N[C@@H](C(C)(C)C)C2=O)s1	-2%	0.26
COC(C)(C)c1nc(C)c(C(=O)NCc2ccc(C)n(C)c2=O)s1	-11%	1.72
Cc1cc(C)c(OC(=O)c2ccc(Cl)cc2Cl)c(CNC(=O)c2ccccc2)c1	40%	-5.11
Cc1cc(NC(=O)N2Cc3ccccc3CO2)nn1C(C)C	0%	0.06
CCN1CN(C(=O)C2(CF)CCC2)CC1=O	-11%	1.32
CC(C)(C)c1coc(CNC(=O)Cc2cn3cc(F)ccc3n2)n1	-4%	0.6
COC(=O)c1cc(F)c(C)c(NCC(=O)NCC(F)(F)F)c1	6%	-1.18
CCc1noc(CN(c2ccc(C#N)cc2)S(C)(=O)=O)n1	-5%	0.56
O=C(NC1CCCc2ccccc21)C1CC(O)CN1 (configuration not stated)	-10%	1.24
Cc1noc(C)c1C(=O)N1CCCCC[C@H]1c1cc(-c2ccc(F)cc2)on1	-7%	0.75
CCN(CC)C(=O)c1ccc(-c2ccc(N)cn2)cc1	-27%	3.89
CCN1CCC(NC(=O)c2ccc3cccnc3c2)(C(F)(F)F)CC1	3%	-0.41
CCCc1noc(Cn2ccc3ccn(Cc4cccnc4)c3c2=O)n1	-11%	0.96
Cc1c[nH]nc1CN1CCOc2ccc(Br)cc2C1	-2%	0.25
CC(C)(O)Cn1nc(-c2ccc(F)cc2)nc1[C@@H]1CCC(=O)N1	-11%	1.43

SMILES	% Inhibition	Z score
O=S1(=O)CCC(O)(CNC2CCCc3c(Cl)sc(Cl)c32)C1 (configuration not stated)	-15%	2.06
O=C(CCN1C(=O)CCC1=O)Nc1nc2cc(F)c(F)cc2s1	-17%	2.6
CC1CN(Cc2ccccn2)CCC1Nc1ncccc1C#N (configuration not stated)	-7%	0.95
Cc1nccn1CCC(=O)NCc1cccc2[nH]ccc12	-3%	0.48
CCOC(=O)CCNC(=O)N1CCC(F)(C(=O)NCc2ccncc2)CC1	-6%	0.76
CNC(=O)C1CCCC1Nc1cc(C)cc(F)c1S(N)(=O)=O (configuration not stated)	-7%	0.94
O=C(c1cc(-c2cccs2)nc2ccccc12)N(Cc1ccccc1)Cc1ccccc1	-7%	0.73
O=C(CC1(O)CCCCC1)N1CCCCC1	-4%	0.37
C[C@H]1CN(C(=O)c2ccccc2C#N)C[C@]1(O)C1CC1	-1%	0.19
Cn1nccc1-c1csc(Nc2ccc3c(c2)OCCCO3)n1	24%	-3.26
COc1cc(C(=O)N[C@H]2CCOC(C)(C)C2)ccc1OC1CCN(C(C)=O)CC1	-11%	1.24
CN(C)C[C@@H]1CN(Cc2cccc(-c3ccccc3)c2)C[C@@H]1CO	0%	-0.01
OC1(Cn2cnc(-c3ccccc3)c2-c2nccs2)CCCCC1	-6%	0.73
Cc1nc(CO[C@H]2CCN(S(=O)(=O)c3ccccc3OC(F)(F)F)C2)cs1	-4%	0.51
CCC(CC)[C@H]1CCN(CCCCO)C1	5%	-0.83
Cc1[nH]c(=O)n(C)c(=O)c1CCC(=O)NCc1ccc(F)cc1	-10%	1.58
O=C(Nc1ncc2c(n1)CCCC2)c1ccc([C@@H]2CCCN2)s1	-2%	0.33
CCn1cncc1CN[C@@H](CC(C)C)C(=O)NC	-18%	2.48
Cc1ccc(C)c(NS(=O)(=O)c2ccc3c(c2)OC[C@@H](C(=O)N2CCCCCC2)O3)c1	-6%	0.93
CC(=O)N1CCC([C@@H]2CN(C(=O)c3cc(C)cc(C)c3)C[C@H]2CO)CC1	-9%	1.07
